# Data published in the supplement of paper PMC8728848.
# The list shows a part of the results.
# Key:
# Assay in all cases: glycan array binding signal (z-score within array); higher = stronger binding
# Details in all cases: glycan notation: IUPAC condensed, linker removed
# Gal(a1-4)GlcNAc = molecular target: Gal(a1-4)GlcNAc
# In short: (§1)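 Glycan array data came from 3228 arrays in the Consortium for Functional Glycomics database, and only arrays with an available protein sequence were kept. Glycan names were put into IUPAC-condensed notation, and columns mapping to the same glycan were averaged. The binding signal is a within-array Z-score, averaged across arrays of one protein sequence run at different concentrations or buffers and across linkers. A negative Z-score can be read as non-binding.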
# Gal(a1-6)Glc = molecular target: Gal(a1-6)Glc
# In short: as §1
# Gal(b1-2)Gal = molecular target: Gal(b1-2)Gal
# In short: as §1
# Gal(b1-3)Gal = molecular target: Gal(b1-3)Gal
# In short: as §1
# Gal(b1-3)GalNAc = molecular target: Gal(b1-3)GalNAc
# In short: as §1
# [1] = molecular target: Gal(b1-3)GalNAc(b1-3)Gal(a1-4)Gal(b1-4)Glc
# In short: as §1
# [2] = molecular target: Gal(b1-3)GalNAc(b1-3)Gal(b1-4)Glc
# In short: as §1
# [3] = molecular target: Gal(b1-3)GalNAc(b1-3)Gal(b1-4)GlcNAc
# In short: as §1
# [4] = molecular target: Gal(b1-3)GalNAc(b1-4)Gal(b1-4)Glc
# In short: as §1
# [5] = molecular target: Gal(b1-3)GalNAc(b1-4)[Neu5Ac(a2-3)]Gal(b1-4)Glc
# In short: as §1
# [6] = molecular target: Gal(b1-3)[Fuc(a1-4)]GlcNAc
# In short: as §1
# [7] = molecular target: Gal(b1-3)[Fuc(a1-4)]GlcNAc(b1-3)Gal(b1-4)GlcNAc
# In short: as §1
# [8] = molecular target: Gal(b1-3)[Fuc(a1-4)]GlcNAc(b1-3)Gal(b1-4)[Fuc(a1-3)]GlcNAc
# In short: as §1
# [9] = molecular target: Gal(b1-3)[GlcNAc(b1-6)]GalNAc
# In short: as §1
# [10] = molecular target: Gal(b1-3)[GlcNAc(b1-6)]GlcNAc
# In short: as §1
# [11] = molecular target: Gal(b1-3)[Neu5Ac(a2-6)]GalNAc
# In short: as §1
# [12] = molecular target: Gal(b1-3)[Neu5Ac(a2-6)]GlcNAc
# In short: as §1
# [13] = molecular target: Gal(b1-3)[Neu5Ac(a2-6)]GlcNAc(a1-4)Gal(b1-4)Glc
# In short: as §1
# [14] = molecular target: Gal(b1-3)[Neu5Ac(b2-6)]GlcNAc
# In short: as §1
# [15] = molecular target: Gal(b1-4)GalNAc(a1-3)[Fuc(a1-2)]Gal(b1-4)GlcNAc
# In short: as §1
# [16] = molecular target: Gal(b1-4)GalNAc(b1-3)[Fuc(a1-2)]Gal(b1-4)GlcNAc
# In short: as §1
# Gal(b1-4)Glc = molecular target: Gal(b1-4)Glc
# In short: as §1
# Gal(b1-4)Glc6S = molecular target: Gal(b1-4)Glc6S
# In short: as §1
# Gal(b1-4)GlcNAc = molecular target: Gal(b1-4)GlcNAc
# In short: as §1
# [17] = molecular target: Gal(b1-4)GlcNAc(b1-2)Man(a1-3)[Gal(b1-4)GlcNAc(b1-2)Man(a1-6)]Man(b1-4)GlcNAc(b1-4)GlcNAc
# In short: as §1
# [18] = molecular target: Gal(b1-4)GlcNAc(b1-3)Gal(b1-4)Glc
# In short: as §1
# [19] = molecular target: Gal(b1-4)GlcNAc(b1-3)Gal(b1-4)GlcNAc
# In short: as §1
# [20] = molecular target: Gal(b1-4)GlcNAc(b1-3)Gal(b1-4)GlcNAc(b1-3)Gal(b1-4)GlcNAc
# In short: as §1
# [21] = molecular target: Gal(b1-4)GlcNAc(b1-3)Gal(b1-4)[Fuc(a1-3)]GlcNAc(b1-3)Gal(b1-4)[Fuc(a1-3)]GlcNAc
# In short: as §1
# [22] = molecular target: Gal(b1-4)GlcNAc(b1-3)GalNAc
# In short: as §1
# [23] = molecular target: Gal(b1-4)GlcNAc(b1-3)[Gal(b1-4)GlcNAc(b1-6)]GalNAc
# In short: as §1
# [24] = molecular target: Gal(b1-4)GlcNAc(b1-6)GalNAc
# In short: as §1
# [25] = molecular target: Gal(b1-4)GlcNAc(b1-6)[Gal(b1-3)]GalNAc
# In short: as §1
# [26] = molecular target: Gal(b1-4)GlcNAc(b1-6)[Gal(b1-3)]GlcNAc
# In short: as §1
# Gal3S(b1-3)GalNAc = molecular target: Gal3S(b1-3)GalNAc
# In short: as §1
# Gal3S(b1-3)GlcNAc = molecular target: Gal3S(b1-3)GlcNAc
# In short: as §1
# [27] = molecular target: Gal3S(b1-3)[Fuc(a1-4)]GlcNAc
# In short: as §1
# Gal3S(b1-4)Glc = molecular target: Gal3S(b1-4)Glc
# In short: as §1
# Gal3S(b1-4)Glc6S = molecular target: Gal3S(b1-4)Glc6S
# In short: as §1
# Gal3S(b1-4)GlcNAc = molecular target: Gal3S(b1-4)GlcNAc
# In short: as §1
# Gal3S(b1-4)GlcNAc6S = molecular target: Gal3S(b1-4)GlcNAc6S
# In short: as §1
# Gal3S6S(b1-4)GlcNAc = molecular target: Gal3S6S(b1-4)GlcNAc
# In short: as §1
# Gal3S6S(b1-4)GlcNAc6S = molecular target: Gal3S6S(b1-4)GlcNAc6S
# In short: as §1
# Gal4S(b1-4)GlcNAc = molecular target: Gal4S(b1-4)GlcNAc
# In short: as §1
# Gal4S6S(b1-4)GlcNAc = molecular target: Gal4S6S(b1-4)GlcNAc
# In short: as §1
binder,measurement,setting,value
CVNH3T (Magnaporthe grisea) (protein) GSHIGPYGNYAGNFSGSSRDICLDGARLRAECRRGDGGYSTSVIDLNRYLSNDNGHFRWVSGGGGGGGTATVTVQQGDTLRDIGRRFDCDFHEIARRNNIQNEDLIYPGQVLQVPTKGGSGGGAGNFWDSARDVRLVDGGKVLEAELRYSGGWNRSRIYLDEHIGNRNGELIHC,glycan array binding signal (z-score),Gal(a1-4)GlcNAc,-0.216
same,glycan array binding signal (z-score),Gal(a1-6)Glc,-0.224
same,glycan array binding signal (z-score),Gal(b1-2)Gal,-0.185
same,glycan array binding signal (z-score),Gal(b1-3)Gal,-0.056
same,glycan array binding signal (z-score),Gal(b1-3)GalNAc,-0.229
same,glycan array binding signal (z-score),[1],6.38
same,glycan array binding signal (z-score),[2],-0.203
same,glycan array binding signal (z-score),[3],-0.245
same,glycan array binding signal (z-score),[4],-0.231
same,glycan array binding signal (z-score),[5],0.243
same,glycan array binding signal (z-score),[6],-0.22
same,glycan array binding signal (z-score),[7],-0.168
same,glycan array binding signal (z-score),[8],-0.216
same,glycan array binding signal (z-score),[9],-0.228
same,glycan array binding signal (z-score),[10],-0.23
same,glycan array binding signal (z-score),[11],-0.227
same,glycan array binding signal (z-score),[12],-0.221
same,glycan array binding signal (z-score),[13],-0.225
same,glycan array binding signal (z-score),[14],-0.238
same,glycan array binding signal (z-score),[15],-0.218
same,glycan array binding signal (z-score),[16],-0.231
same,glycan array binding signal (z-score),Gal(b1-4)Glc,-0.11
same,glycan array binding signal (z-score),Gal(b1-4)Glc6S,-0.229
same,glycan array binding signal (z-score),Gal(b1-4)GlcNAc,-0.229
same,glycan array binding signal (z-score),[17],-0.235
same,glycan array binding signal (z-score),[18],-0.214
same,glycan array binding signal (z-score),[19],-0.234
same,glycan array binding signal (z-score),[20],-0.237
same,glycan array binding signal (z-score),[21],-0.223
same,glycan array binding signal (z-score),[22],-0.219
same,glycan array binding signal (z-score),[23],0.47
same,glycan array binding signal (z-score),[24],-0.239
same,glycan array binding signal (z-score),[25],-0.138
same,glycan array binding signal (z-score),[26],-0.23
same,glycan array binding signal (z-score),Gal3S(b1-3)GalNAc,-0.226
same,glycan array binding signal (z-score),Gal3S(b1-3)GlcNAc,-0.21
same,glycan array binding signal (z-score),[27],-0.213
same,glycan array binding signal (z-score),Gal3S(b1-4)Glc,-0.22
same,glycan array binding signal (z-score),Gal3S(b1-4)Glc6S,-0.194
same,glycan array binding signal (z-score),Gal3S(b1-4)GlcNAc,-0.223
same,glycan array binding signal (z-score),Gal3S(b1-4)GlcNAc6S,-0.222
same,glycan array binding signal (z-score),Gal3S6S(b1-4)GlcNAc,-0.16
same,glycan array binding signal (z-score),Gal3S6S(b1-4)GlcNAc6S,-0.229
same,glycan array binding signal (z-score),Gal4S(b1-4)GlcNAc,-0.224
same,glycan array binding signal (z-score),Gal4S6S(b1-4)GlcNAc,-0.207
